Results published in article PMC12136788.
The other results are listed elsewhere or left out.

T1: UNK ZnF1-3 (human, UniProt Q9C0B0 31-174)
T1 sequence: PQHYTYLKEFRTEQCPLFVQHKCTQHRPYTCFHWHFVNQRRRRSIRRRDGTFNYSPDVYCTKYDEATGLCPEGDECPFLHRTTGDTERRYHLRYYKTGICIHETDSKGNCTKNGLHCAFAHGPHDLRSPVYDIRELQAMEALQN

B1: 169811557_169811677_2132_CDS_ENSG00000000460_ENST00000359326|human|control|control (ssRNA)
RNA: GGGAGUUCUACAGUCCGACGAUCUUUAAUGUUUAAAAAAGCCCAAAGCUGACUCACAACUUCGAUAAUUGCAGUUUGUUUUCCUGUAUCCAAAGCUUCACCAGCAGAAUUACAUACUGCAAGCAAAGCAGACAGUACUGUGUUCAACAGAGGAUUGAGCAUCA
B2: chr21:34901235:34901236:-_ENSG00000159131_ENST00000381815|hu_mus|FALSE|FALSE (ssRNA)
RNA: GGGAGUUCUACAGUCCGACGAUCCAUGCCGUCUACUGCUCUCUGAAGAAUAGUGUUCUUAAUUUUUACUAACAAGUCCUUAGAAACCUGAGGUGCUGGGCAGUAGGCUCCCAUCCCCCCGGUGUUGGGGCCUUCGUCUCCAUCCAACAGAGGAUUGAGCAUCA
B3: chr16:38184571:38184572:+_ENSMUSG00000022812_ENSMUST00000023507|mus_mus|motif|central (ssRNA)
RNA: GGGAGUUCUACAGUCCGACGAUCCAGCUGAUACAUAUACAACUUGACAUAGAUCACAGGGAGUGUCUGCUUGGCUCGACGGUAGUGUCUGGCGACUCUGUACACUGUCUCCGGAACAUAGUCCAGCACCAGGUUAAGGUAGACCAACAGAGGAUUGAGCAUCA
B4: chr6:117881578:117881579:-_ENSG00000047932_ENST00000052569|hu_hu|motif|central (ssRNA)
RNA: GGGAGUUCUACAGUCCGACGAUCUUUAAUGUAGAAGAUGCCAUCUUUAUUUACAGGCUAAUAAAAAAAUAUUAAACUCAACGGGAUAUAAUACAUUAUCAUAAAUGCAAUAGAUUUGAGGCCAACCAUAAGUGUAAGACUGGACAACAGAGGAUUGAGCAUCA
B5: chr1:66462064:66462065:+_ENSMUSG00000015222_ENSMUST00000114013|mus_mus|FALSE|FALSE (ssRNA)
RNA: GGGAGUUCUACAGUCCGACGAUCGACCUCACCCUUCUCAUCCGUGGAUAAAUCAGCUUCGGAAACUGGAGGCGGGCAAGGGAUUUCUACAGACAGCUUGAGGGCAACUUCAUCUUGGAUCAGUGAUGUCUCUGGAGAUGUUUCCAACAGAGGAUUGAGCAUCA
B6: chr14:21838049:21838050:-_ENSG00000092201_ENST00000216297|hu_mus|FALSE|FALSE (ssRNA)
RNA: GGGAGUUCUACAGUCCGACGAUCGUUGAGCUCACCGUCCUCUUUCACAGCAAUGGUGUAUGCCACAACAGCGCUGAUGUCUACUUUGUCAAAGCCCUCCUUGUUGAGACAAUCACUCCAGCUCUUCAUGAACUCUCCAGGGAACAACAGAGGAUUGAGCAUCA
B7: chr14:76904430:76904431:+_ENSMUSG00000022010_ENSMUST00000022587|mus_mus|mus_mus_mus_hu_True|38_68 (ssRNA)
RNA: GGGAGUUCUACAGUCCGACGAUCUGCAGCCAAAAACACCCUCGUGGAAAAAAAGAGGGAACACCAGCAGCCUGGUUUAAGCUAGAUAAAAUCUUCUAGCUGUCUGCAGCCCAGGGAGAAACAGAAAACGGCAGCCCUAAUUUACAACAGAGGAUUGAGCAUCA
B8: chr18:32579733:32579734:+_ENSMUSG00000024381_ENSMUST00000025239|mus_mus|motif|central (ssRNA)
RNA: GGGAGUUCUACAGUCCGACGAUCUUUAUGGAAGUUUUCCUCCAGACCCGCGAUGCUCUGGAACGUGUUGACAUAGAAACCGGCACGGCUGUUCCACAGGGAUGGCAGCUCCUCCUGCAGAUCCACGUUCAUCUCCUCGAACACCAACAGAGGAUUGAGCAUCA
B9: chr7:140404665:140404666:+_ENSG00000090266_ENST00000247866|hu_hu|hu_hu_hu_mus_False|1_38 (ssRNA)
RNA: GGGAGUUCUACAGUCCGACGAUCUGCUCCUACUCGUCCAGAGAGUUUACAGUGUCAGUCCUCGUCAUCAGGAGGGAUUCCCAGUUCUUCAUCUGUCCACUGGGAAGGAUCUGGAUAUGAAAAGUGACCCAGCACAGCUUCUGACAACAGAGGAUUGAGCAUCA
B10: chr4:43015417:43015418:-_ENSMUSG00000028453_ENSMUST00000030165|mus_mus|motif|central (ssRNA)
RNA: GGGAGUUCUACAGUCCGACGAUCAAAGGGUAGGAAUGGGGAUUUUUAUGAGGAACUGCAGUUUAGUCCCCAGAAUCCAACCGGCCAAAAAGACAAUGGGAAGGAAGGGGGAGUUAGGGAGACAGGGAAGGCAGACAGAAGACGCAACAGAGGAUUGAGCAUCA
B11: 74397459_74397579_1786_3pUTR_ENSMUSG00000054814_ENSMUST00000068058|mouse|control|control (ssRNA)
RNA: GGGAGUUCUACAGUCCGACGAUCUACCAAUGACAGCCUUACCUCACCUUGCUCCAAUGUGGAGGAGGAUUUUGGCAUCUAGGCCACUCACUUUUAAACAUUUUCACUUGCACAAACUUAAAGCUAUGGUUGCAGCCCUAACAGCAACAGAGGAUUGAGCAUCA
B12: chr18:32917252:32917253:-_ENSG00000172466_ENST00000399061|hu_hu|motif|central (ssRNA)
RNA: GGGAGUUCUACAGUCCGACGAUCUUCUUAAACUUUCACAACAUUCAGAAGUUUUUCUGCAUUGUGUCUUCUCUGAUGUCGGAAAAGAUUUGAGCUUUGACUAUACGAUUUCCCACACUGAACGCAUUCAUAAGGUUUCUCCCCCAACAGAGGAUUGAGCAUCA
B13: chr12:16048344:16048345:+_ENSG00000023734_ENST00000419869|hu_hu|hu_hu_hu_mus_True|18_18 (ssRNA)
RNA: GGGAGUUCUACAGUCCGACGAUCAGAUCGUCCAUAAGUAAUAACCAAAAUCUCUCCUUCAGGAAUAUACUCCAUGCUGCUAACAGACAUAUUAAAAUUCAGAGAUUUCACUUCUGUCAUAGUAGCAUGAUCCCAGAGCCGAACCAACAGAGGAUUGAGCAUCA
B14: chr10:112343607:112343608:+_ENSG00000108055_ENST00000361804|hu_hu|FALSE|FALSE (ssRNA)
RNA: GGGAGUUCUACAGUCCGACGAUCUUCUAUUUUUUCAAGCAGCUUCUGCCUCUCUUUUAAUAAACGUUUCCUUUGUUCACUAUUGCCUGCUAGUUCAUCUUGUAAAUCCUUGGCUUUAAGCUCCAACUUAGUCCUCUGCUUAAUCAACAGAGGAUUGAGCAUCA

Target: T1, UNK ZnF1-3
Assay: nsRBNS (natural sequence RNA bind-n-seq); RBNS binding buffer (assumed for nsRBNS): 25 mM Tris pH 7.5, 150 mM KCl, 3 mM MgCl2, 0.01% Triton X-100, 500 ug/ml BSA, 20 U/ml SUPERase-In, 4 C; UNK is unkempt and MSI1 is Musashi-1; names of the RNAs are library labels; protein concentration not given here; high values mean tight binding

Compared with B1, B2 is lower in binding signal: 1.12 enrichment R for the first, 0.927 enrichment R for the second.

First: B3
Second: B4
The binding signal of the first is lower: 0.843 enrichment R for the first, 1.5 enrichment R for the second.

Going from B5 to B6, the binding signal rises from 1.01 enrichment R to 1.33 enrichment R.

Going from B7 to B8, the binding signal falls from 2.48 enrichment R to 0.625 enrichment R.

Going from B9 to B10, the binding signal rises from 1.36 enrichment R to 1.67 enrichment R.

Going from B11 to B12, the binding signal rises from 0.546 enrichment R to 0.743 enrichment R.

Going from B13 to B14, the binding signal falls from 0.977 enrichment R to 0.394 enrichment R.
